The IC50 comes from the fitted curve, where viability falls to half of the control; a fit beyond the top or the lowest dose is shown as a bound at that dose. AUC sums up the same curve from the lowest dose to the 256-fold higher top dose; it is 1 without any effect and falls as sensitivity rises. Any top dose called inferred is not printed in the source and was worked back from the curve model.
Compound: O=C1NC(=O)/C(=C\c2ccc3nccnc3c2)S1 [AS605240]
Assay: Viability of human cancer cell lines after 72 h of drug (GDSC screen)
Conditions: top dose inferred
Method: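 Human cancer cell lines in 384-well plates, medium with 10% serum, drug for 72 h over a 256-fold dose range (nine 2-fold or five 4-fold steps up to the top dose). Adherent lines were fixed and stained with the nucleic acid dye Syto60, suspension lines read with resazurin; signal relative to control wells, capped at 0 and 100%. One two-parameter sigmoid per drug and line, fitted in a mixed model over all curves with the slope shared within a line.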

**Q.** “NCI-H2135 (non-small cell lung carcinoma, adherent, top dose 20 µM)” was tested. Which AUC did it give?
**A.** 0.952

**Q.** And the IC50?
**A.** > 20 µM

**Q.** For “NB6 (neuroblastoma, adherent, top dose 20 µM)”, which AUC is on record?
**A.** 0.908

**Q.** What about the IC50 of the same cell line?
**A.** > 20 µM

**Q.** How did the AUC turn out when “LN-18 (glioma, adherent, top dose 20 µM)” was run?
**A.** 0.947

**Q.** And the IC50?
**A.** > 20 µM

**Q.** For “SW48 (large intestine, adherent, top dose 20 µM)”, which AUC is on record?
**A.** 0.937

**Q.** What about the IC50 of the same cell line?
**A.** > 20 µM

**Q.** How did the AUC turn out when “NCI-H1703 (lung adenocarcinoma, adherent, top dose 20 µM)” was run?
**A.** 0.885

**Q.** What about the IC50 of the same cell line?
**A.** > 20 µM

**Q.** For SW626 (ovary, adherent, top dose 20 µM), which AUC is on record?
**A.** 0.552

**Q.** What about the IC50 of the same cell line?
**A.** 1.78 µM

**Q.** How did the AUC turn out when “HO-1-u-1 (head and neck, adherent, top dose 20 µM)” was run?
**A.** 0.987

**Q.** What about the IC50 of the same cell line?
**A.** > 20 µM

**Q.** For “FTC-133 (thyroid, adherent, top dose 20 µM)”, which AUC is on record?
**A.** 0.974

**Q.** What about the IC50 of the same cell line?
**A.** > 20 µM

**Q.** With GB-1 (glioma, adherent, top dose 20 µM) as the cell line, how does the AUC read?
**A.** 0.79

**Q.** What about the IC50 of the same cell line?
**A.** 10.7 µM

**Q.** What does the source list for “LB996-RCC (kidney, adherent, top dose 20 µM)”?
**A.** AUC: 0.983; IC50: > 20 µM

**Q.** “LS-123 (large intestine, adherent, top dose 20 µM)” was tested. Which AUC did it give?
**A.** 0.719

**Q.** And the IC50?
**A.** 6.52 µM

**Q.** “NCI-H1975 (lung adenocarcinoma, adherent, top dose 20 µM)” was tested. Which AUC did it give?
**A.** 0.928

**Q.** And the IC50?
**A.** > 20 µM

**Q.** How did the AUC turn out when “SK-MEL-3 (melanoma, adherent, top dose 20 µM)” was run?
**A.** 0.848

**Q.** And the IC50?
**A.** 18.6 µM

**Q.** Which AUC does the source give for “BPH-1 (prostate, adherent, top dose 20 µM)” here?
**A.** 0.859

**Q.** What about the IC50 of the same cell line?
**A.** 19.6 µM

**Q.** What does the source list for “BT-483 (breast, adherent, top dose 20 µM)”?
**A.** AUC: 0.849; IC50: > 20 µM

**Q.** For “RPMI-8402 (T-cell lymphoblastic leukaemia, suspension, top dose 20 µM)”, which AUC is on record?
**A.** 0.483

**Q.** And the IC50?
**A.** 1.13 µM

**Q.** With “L-428 (Hodgkin lymphoma, suspension, top dose 20 µM)” as the cell line, how does the AUC read?
**A.** 0.901

**Q.** And the IC50?
**A.** > 20 µM

**Q.** Which results are given for “EBC-1 (lung squamous cell carcinoma, adherent, top dose 20 µM)”?
**A.** AUC: 0.824; IC50: 14 µM

**Q.** For “JiyoyeP-2003 (Burkitt lymphoma, suspension, top dose 20 µM)”, which AUC is on record?
**A.** 0.869

**Q.** And the IC50?
**A.** 14.8 µM

**Q.** How did the AUC turn out when “NCI-H2122 (lung adenocarcinoma, adherent, top dose 20 µM)” was run?
**A.** 0.972

**Q.** What about the IC50 of the same cell line?
**A.** > 20 µM

**Q.** How did the AUC turn out when “NCI-H1417 (small cell lung carcinoma, suspension, top dose 20 µM)” was run?
**A.** 0.942

**Q.** What about the IC50 of the same cell line?
**A.** > 20 µM

**Q.** “SLVL (B-cell lymphoma, suspension, top dose 20 µM)” was tested. Which AUC did it give?
**A.** 0.643

**Q.** And the IC50?
**A.** 3.18 µM

**Q.** For “SNU-C2B (large intestine, adherent, top dose 20 µM)”, which AUC is on record?
**A.** 0.979

**Q.** And the IC50?
**A.** > 20 µM

**Q.** How did the AUC turn out when “BT-20 (breast, adherent, top dose 20 µM)” was run?
**A.** 0.813

**Q.** And the IC50?
**A.** 14.2 µM

**Q.** With “CTB-1 (B-cell lymphoma, suspension, top dose 20 µM)” as the cell line, how does the AUC read?
**A.** 0.686

**Q.** What about the IC50 of the same cell line?
**A.** 5.07 µM

**Q.** Which AUC does the source give for “NCI-H847 (small cell lung carcinoma, adherent, top dose 20 µM)” here?
**A.** 0.896

**Q.** And the IC50?
**A.** 16.3 µM

**Q.** Which AUC does the source give for “NCI-H3122 (lung adenocarcinoma, adherent, top dose 20 µM)” here?
**A.** 0.746

**Q.** What about the IC50 of the same cell line?
**A.** 6.49 µM

**Q.** How did the AUC turn out when T98G (glioma, adherent, top dose 20 µM) was run?
**A.** 0.978

**Q.** What about the IC50 of the same cell line?
**A.** > 20 µM

**Q.** Which results are given for “LU-65 (large cell lung carcinoma, suspension, top dose 20 µM)”?
**A.** AUC: 0.662; IC50: 3.84 µM

**Q.** For “MZ7-mel (melanoma, adherent, top dose 20 µM)”, which AUC is on record?
**A.** 0.349

**Q.** What about the IC50 of the same cell line?
**A.** 0.47 µM

**Q.** Which AUC does the source give for “NCI-H2030 (lung adenocarcinoma, adherent, top dose 20 µM)” here?
**A.** 0.819

**Q.** And the IC50?
**A.** 13.4 µM

**Q.** With “22RV1 (prostate, adherent, top dose 20 µM)” as the cell line, how does the AUC read?
**A.** 0.837

**Q.** What about the IC50 of the same cell line?
**A.** 18.3 µM

**Q.** For “BICR10 (head and neck, adherent, top dose 20 µM)”, which AUC is on record?
**A.** 0.935

**Q.** What about the IC50 of the same cell line?
**A.** > 20 µM

**Q.** “NCC021 (kidney, adherent, top dose 20 µM)” was tested. Which AUC did it give?
**A.** 0.935

**Q.** What about the IC50 of the same cell line?
**A.** > 20 µM

**Q.** How did the AUC turn out when “NCI-SNU-1 (stomach, suspension, top dose 20 µM)” was run?
**A.** 0.703

**Q.** What about the IC50 of the same cell line?
**A.** 4.75 µM

**Q.** Which results are given for “H2722 (mesothelioma, adherent, top dose 20 µM)”?
**A.** AUC: 0.927; IC50: > 20 µM

**Q.** Which AUC does the source give for “SN12C (kidney, adherent, top dose 20 µM)” here?
**A.** 0.958

**Q.** What about the IC50 of the same cell line?
**A.** > 20 µM

**Q.** How did the AUC turn out when “TE-8 (oesophagus, adherent, top dose 20 µM)” was run?
**A.** 0.954

**Q.** And the IC50?
**A.** > 20 µM

**Q.** Which results are given for “NCI-H2087 (lung adenocarcinoma, semi-adherent, top dose 20 µM)”?
**A.** AUC: 0.982; IC50: > 20 µM

**Q.** What does the source list for “CHP-134 (neuroblastoma, suspension, top dose 20 µM)”?
**A.** AUC: 0.939; IC50: > 20 µM
